Experimental data as given in PubChem BioAssay AID2202238 (Ras Initiative Chemistry Research Team, Frederick National …, 2025).
The list shows a part of the results. Further columns of the screen follow, without active or inactive calls.

Target: GTPase KRas (Homo sapiens) (UniProt P01116)
Experiment: Fragment capture on engineered cysteines, share of protein labelled (AID 2202238)
Design: protein at 5 µM with 500 µM competing thiol for 1.5 h
Details: KRAS G12D cysteine mutants, disulfide tethering, MALDI-TOF labeling, stronger effect = higher value, fragment at 500 µM
[1] = measured here: G60C mutant labeling
[2] = measured here: G75C mutant labeling
[3] = measured here: H94C mutant labeling
[4] = measured here: I36C mutant labeling
[5] = measured here: L120C mutant labeling
[6] = measured here: M67C mutant labeling
[7] = measured here: M72C mutant labeling
[8] = measured here: N26C mutant labeling
[9] = measured here: N86C mutant labeling
[10] = measured here: P121C mutant labeling
[11] = measured here: S122C mutant labeling
[12] = measured here: S136C mutant labeling

UniProt P01116, sequence (P01116 whole entry, looked up, the tested form may be a part): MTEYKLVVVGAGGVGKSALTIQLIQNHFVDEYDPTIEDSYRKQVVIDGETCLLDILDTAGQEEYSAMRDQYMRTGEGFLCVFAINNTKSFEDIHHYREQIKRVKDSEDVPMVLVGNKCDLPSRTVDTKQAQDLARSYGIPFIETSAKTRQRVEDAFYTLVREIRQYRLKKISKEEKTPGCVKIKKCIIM

Structure (SMILES)	percent labeling [1] [%]	percent labeling [2] [%]	percent labeling [3] [%]	percent labeling [4] [%]	percent labeling [5] [%]	percent labeling [6] [%]	percent labeling [7] [%]	percent labeling [8] [%]	percent labeling [9] [%]	percent labeling [10] [%]	percent labeling [11] [%]	percent labeling [12] [%]
O=C(NCCS)[C@@H]1C[C@]12CCOc1ccc(Cl)cc12	31.5	9.3	13.9	12.7	16.5	14.7	26	26.8	10.9	21.7	10.9	19
Cc1nc2ncc(C(=O)NCCS)cc2[nH]1	29	18.5	28.2	23.8	27.7	32.1	33.4	44	32.6	24	29.1	48
O=C(CC(c1ccc(Cl)c(Cl)c1)N1CCOCC1)NCCS (centres undefined)	61.1	26.3	36.1	29.4	31.4	49.2	45.9	40.1	18.6	28.2	22.5	44.4
O=C(NCCS)C1CCCN1C(=O)c1cncn1-c1ccccc1 (centres undefined)	28.9	14.5	31.2	28	26.9	30.2	15.6	27.2	18.3	31.4	23	42.7
O=C(NCCS)c1cc(Nc2ccccc2)ncn1	8.6	8	8.9	9.7	12.5	12.3	28.6	21.1	5.5	9.3	8.5	17.7
Cn1nc(NC(=O)CCS)cc1CN1CCOCC1	–	11.8	33.1	36.8	40.5	36	24.6	–	23.1	31.6	35.6	46.3
O=C(CCS)NCC(=O)N1CCc2sccc2C1	–	11.5	31.4	33.2	39.2	39.8	35.8	–	31.8	34.5	32.2	53.1
O=C(CCS)NC1(c2nc(C3CC3)cc(=O)[nH]2)CCCCC1	–	11.2	35.3	31.3	21.8	30.2	45.3	–	21.5	26.3	21.1	42.1
O=C(CCS)NC1CC2(C1)NC(=O)NC2=O (centres undefined)	–	23.4	35.5	30.1	27	26.4	15.5	–	39.4	35.8	44.9	47.3
Cc1csc(N(CCc2ccccc2)C(=O)CCS)n1	–	25.1	19.7	19.8	14.3	15.1	36.8	–	14.2	16.6	9.5	38.3
Cn1ccn2ncc(CNC(=O)CCS)c2c1=O	–	17.4	28	47.8	31.3	49.6	26.5	–	36.9	38.1	45.6	63.3
CN(C)Cc1csc(CNC(=O)CCS)n1	–	7.9	24	35.7	21.5	40.1	11.1	–	19.4	22.8	28.3	40.3
Cc1onc(-c2ccccc2)c1NC(=O)CCS	–	14.7	36.9	38.8	22.1	38.1	36	–	21.8	34	29.3	53.8
O=C(CCS)N1CCC(N2C(=O)CCCC2=O)CC1	–	6.1	26.8	26.6	27.5	35.6	13.4	–	28.1	27.9	24.8	44.4
O=C(CCc1ccc2cccnc2c1)NCCS	49.1	23	31.3	31.2	33.2	35.9	40.2	43.6	25.2	33.7	32.5	42.4
O=C(CCS)N1CC2ON=C(C(F)F)C2C1 (centres undefined)	–	22.5	29.9	33.6	33.6	29.3	23.3	–	31.3	34	39.5	54.3

Structure (SMILES)	percent labeling [1] [%]	percent labeling [2] [%]	percent labeling [3] [%]	percent labeling [4] [%]	percent labeling [5] [%]	percent labeling [6] [%]	percent labeling [7] [%]	percent labeling [8] [%]	percent labeling [9] [%]	percent labeling [10] [%]	percent labeling [11] [%]	percent labeling [12] [%]
Cn1nc(C(=O)NCCS)c(=O)c2ccccc21	34.7	43.3	27.8	17.6	37.9	36.6	79.8	45.5	18.9	42.1	12.1	43.9
O=C(CCS)NCCc1nccc(C(F)F)n1	–	8	24.3	37.6	27.2	28.9	12.6	–	25.1	35.2	38.7	47.2
NC(=O)COc1cccc(NC(=O)CCS)c1	–	19.7	37.6	41.2	31.3	30.1	38.9	–	31.7	31.7	39.8	48.5
O=C1CCCc2cc(C(=O)NCCS)ccc2N1	31.2	19.6	37.1	27.6	34.3	28.7	33.1	42.3	23.5	25	24.8	43.9
CC(O)(C(=O)NCCS)C1CCC1 (centres undefined)	39.1	21.8	39.5	26.6	44.4	29.6	27.4	31.1	37.9	33.3	32.6	41.1
Cc1noc(C)c1CN(Cc1c(C)noc1C)C(=O)CCS	–	12.5	41.2	40.5	22.7	44.7	31.1	–	27.2	36.4	34.5	61.1
O=C(CCS)NCc1ncoc1-c1ccccc1	–	12.9	37.5	44.1	31.1	34.2	50.5	–	25.4	35.1	30	61.4
O=C(CCS)N1CCn2cccc2C12CCC2	–	5.9	3.6	14.1	0	2.4	0	–	6.5	0	3.4	0
O=C(CCS)NCc1c(F)cccc1OC(F)F	–	13.9	40.9	40.3	34.7	39.8	42.8	–	35.3	35.2	40.6	62.7
O=C(NCCS)c1cc2c(C(F)(F)F)cc(=O)[nH]c2o1	59.3	27.9	32.9	26.9	45.5	33.2	56.6	43.8	30.3	34.4	39.7	43.2
CCOC(=O)c1cnc(N2CCN(C(=O)CCS)CC2)s1	–	11.4	24.9	30.2	18.6	27.2	21.4	–	22.1	18.4	19.1	34.6
CN1C2(CCC2)COCC1(CO)CNC(=O)CCS (centres undefined)	–	8.2	34.2	42.5	31.1	37.9	13.7	–	24.7	30.9	31.8	47.7
O=C(Cc1ccc(N2CCCC2=O)cc1)NCCS	37.5	14.5	35.6	27.1	38.6	30.8	36.9	40.2	30.7	32	32.1	44.3
Cc1nc(CN2CCN(C(=O)CCS)CC2)oc1C	–	8.7	31.6	36.1	30.8	41.6	20.6	–	29.8	38.2	39.3	61.4
O=C(Cc1nc2ccccn2c1Br)NCCS	35.2	13.9	23.3	18.1	45.3	15.7	19.5	21.1	11.2	20.2	10.4	30
